Data reported in the supplement of paper PMC8728848.
The other results are listed elsewhere or left out.

Tests used:
Test in all cases: glycan array binding signal (z-score within array); higher = stronger binding
Settings in all cases: glycan notation: IUPAC condensed, linker removed
[1] = molecular target: Fuc(a1-2)[Gal(a1-3)]Gal(b1-4)GlcNAc(b1-2)Man(a1-3)[Fuc(a1-2)[Gal(a1-3)]Gal(b1-4)GlcNAc(b1-2)Man(a1-6)]Man(b1-4)GlcNAc(b1-4)[Fuc(a1-6)]GlcNAc
Summary of the method: (§1)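 Glycan array binding is given as a within-array Z-score, which can be read as non-binding when negative. The arrays, 3228 of them, came from the Consortium for Functional Glycomics database and were retained only where the protein sequence was available. Z-scores were averaged across arrays of the same protein sequence at different concentrations or buffers and across linkers.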

[2] = molecular target: Fuc(a1-2)[Gal(a1-3)]Gal(b1-4)GlcNAc(b1-3)GalNAc
Summary of the method: as §1

[3] = molecular target: Fuc(a1-2)[Gal(a1-3)]Gal(b1-4)GlcNAc(b1-3)[Fuc(a1-2)[Gal(a1-3)]Gal(b1-4)GlcNAc(b1-6)]GalNAc
Summary of the method: as §1

[4] = molecular target: Fuc(a1-2)[Gal(a1-3)]Gal(b1-4)GlcNAc(b1-6)GalNAc
Summary of the method: as §1

[5] = molecular target: Fuc(a1-2)[Gal(a1-3)]Gal(b1-4)[Fuc(a1-3)]Glc
Summary of the method: as §1

[6] = molecular target: Fuc(a1-2)[Gal(a1-3)]Gal(b1-4)[Fuc(a1-3)]GlcNAc
Summary of the method: as §1

[7] = molecular target: Fuc(a1-2)[Gal(a1-3)]Gal(b1-4)[Fuc(a1-3)]GlcNAc(b1-3)GalNAc
Summary of the method: as §1

[8] = molecular target: Fuc(a1-2)[Gal(a1-4)]Gal(b1-4)GlcNAc
Summary of the method: as §1

[9] = molecular target: Fuc(a1-2)[GalNAc(a1-3)]Gal
Summary of the method: as §1

[10] = molecular target: Fuc(a1-2)[GalNAc(a1-3)]Gal(b1-3)GalNAc(a1-3)[Fuc(a1-2)]Gal(b1-4)GlcNAc
Summary of the method: as §1

[11] = molecular target: Fuc(a1-2)[GalNAc(a1-3)]Gal(b1-3)GalNAc(b1-3)Gal(a1-4)Gal(b1-4)Glc
Summary of the method: as §1

[12] = molecular target: Fuc(a1-2)[GalNAc(a1-3)]Gal(b1-3)GlcNAc
Summary of the method: as §1

[13] = molecular target: Fuc(a1-2)[GalNAc(a1-3)]Gal(b1-3)GlcNAc(b1-2)Man(a1-3)[Fuc(a1-2)[GalNAc(a1-3)]Gal(b1-3)GlcNAc(b1-2)Man(a1-6)]Man(b1-4)GlcNAc(b1-4)GlcNAc
Summary of the method: as §1

[14] = molecular target: Fuc(a1-2)[GalNAc(a1-3)]Gal(b1-3)GlcNAc(b1-2)Man(a1-3)[Fuc(a1-2)[GalNAc(a1-3)]Gal(b1-3)GlcNAc(b1-2)Man(a1-6)]Man(b1-4)GlcNAc(b1-4)[Fuc(a1-6)]GlcNAc
Summary of the method: as §1

[15] = molecular target: Fuc(a1-2)[GalNAc(a1-3)]Gal(b1-3)GlcNAc(b1-3)GalNAc
Summary of the method: as §1

[16] = molecular target: Fuc(a1-2)[GalNAc(a1-3)]Gal(b1-3)GlcNAc(b1-6)GalNAc
Summary of the method: as §1

[17] = molecular target: Fuc(a1-2)[GalNAc(a1-3)]Gal(b1-4)Glc
Summary of the method: as §1

[18] = molecular target: Fuc(a1-2)[GalNAc(a1-3)]Gal(b1-4)GlcNAc
Summary of the method: as §1

[19] = molecular target: Fuc(a1-2)[GalNAc(a1-3)]Gal(b1-4)GlcNAc(b1-2)Man
Summary of the method: as §1

[20] = molecular target: Fuc(a1-2)[GalNAc(a1-3)]Gal(b1-4)GlcNAc(b1-2)Man(a1-3)[Fuc(a1-2)[GalNAc(a1-3)]Gal(b1-4)GlcNAc(b1-2)Man(a1-6)]Man(b1-4)GlcNAc(b1-4)GlcNAc
Summary of the method: as §1

[21] = molecular target: Fuc(a1-2)[GalNAc(a1-3)]Gal(b1-4)GlcNAc(b1-2)Man(a1-3)[Fuc(a1-2)[GalNAc(a1-3)]Gal(b1-4)GlcNAc(b1-2)Man(a1-6)]Man(b1-4)GlcNAc(b1-4)[Fuc(a1-6)]GlcNAc
Summary of the method: as §1

[22] = molecular target: Fuc(a1-2)[GalNAc(a1-3)]Gal(b1-4)GlcNAc(b1-3)Gal(b1-4)GlcNAc
Summary of the method: as §1

[23] = molecular target: Fuc(a1-2)[GalNAc(a1-3)]Gal(b1-4)GlcNAc(b1-3)Gal(b1-4)GlcNAc(b1-3)Gal(b1-4)GlcNAc
Summary of the method: as §1

[24] = molecular target: Fuc(a1-2)[GalNAc(a1-3)]Gal(b1-4)GlcNAc(b1-3)GalNAc
Summary of the method: as §1

[25] = molecular target: Fuc(a1-2)[GalNAc(a1-3)]Gal(b1-4)GlcNAc(b1-3)[Fuc(a1-2)[GalNAc(a1-3)]Gal(b1-4)GlcNAc(b1-6)]GalNAc
Summary of the method: as §1

[26] = molecular target: Fuc(a1-2)[GalNAc(a1-3)]Gal(b1-4)GlcNAc(b1-6)GalNAc
Summary of the method: as §1

[27] = molecular target: Fuc(a1-2)[GalNAc(a1-3)]Gal(b1-4)[Fuc(a1-3)]GlcNAc
Summary of the method: as §1

[28] = molecular target: Fuc(a1-2)[GalNAc(a1-3)]Gal(b1-4)[Fuc(a1-3)]GlcNAc(b1-3)GalNAc
Summary of the method: as §1

[29] = molecular target: Fuc(a1-2)[GalNAc(a1-4)]Gal(b1-4)GlcNAc
Summary of the method: as §1

[30] = molecular target: Fuc(a1-2)[GalNAc(b1-3)]Gal
Summary of the method: as §1

[31] = molecular target: Fuc(a1-3)GlcNAc
Summary of the method: as §1

[32] = molecular target: Fuc(a1-3)[Gal(b1-4)]Glc6S
Summary of the method: as §1

[33] = molecular target: Fuc(a1-3)[Gal(b1-4)]GlcNAc
Summary of the method: as §1

[34] = molecular target: Fuc(a1-3)[Gal(b1-4)]GlcNAc(b1-2)Man
Summary of the method: as §1

[35] = molecular target: Fuc(a1-3)[Gal(b1-4)]GlcNAc(b1-2)Man(a1-3)[Fuc(a1-3)[Gal(b1-4)]GlcNAc(b1-2)Man(a1-6)]Man(b1-4)GlcNAc(b1-4)GlcNAc
Summary of the method: as §1

[36] = molecular target: Fuc(a1-3)[Gal(b1-4)]GlcNAc(b1-2)Man(a1-3)[Fuc(a1-3)[Gal(b1-4)]GlcNAc(b1-2)Man(a1-6)]Man(b1-4)GlcNAc(b1-4)[Fuc(a1-6)]GlcNAc
Summary of the method: as §1

[37] = molecular target: Fuc(a1-3)[Gal(b1-4)]GlcNAc(b1-3)Gal(b1-3)[Fuc(a1-4)]GlcNAc
Summary of the method: as §1

[38] = molecular target: Fuc(a1-3)[Gal(b1-4)]GlcNAc(b1-3)Gal(b1-4)[Fuc(a1-3)]GlcNAc
Summary of the method: as §1

[39] = molecular target: Fuc(a1-3)[Gal(b1-4)]GlcNAc(b1-3)Gal(b1-4)[Fuc(a1-3)]GlcNAc(b1-3)Gal(b1-4)[Fuc(a1-3)]GlcNAc
Summary of the method: as §1

[40] = molecular target: Fuc(a1-3)[Gal(b1-4)]GlcNAc(b1-3)GalNAc
Summary of the method: as §1

[41] = molecular target: Fuc(a1-3)[Gal(b1-4)]GlcNAc(b1-6)GalNAc
Summary of the method: as §1

[42] = molecular target: Fuc(a1-3)[Gal(b1-4)]GlcNAc(b1-6)[Gal(b1-3)GlcNAc(b1-3)]Gal(b1-4)Glc
Summary of the method: as §1

[43] = molecular target: Fuc(a1-3)[Gal(b1-4)]GlcNAc6S
Summary of the method: as §1

[44] = molecular target: Fuc(a1-3)[Gal3S(b1-4)]Glc
Summary of the method: as §1

[45] = molecular target: Fuc(a1-3)[Gal3S(b1-4)]GlcNAc
Summary of the method: as §1

B1: Tamarinin (protein)
chain: CDDSARAGNIVVYWGQGGSDNSEGSLKEACKSGHYNMIVLQQLIVYDDGRDPDLNLGAHCSDCTKLEEQIKYCQNKDIKILLQIGQVVPTQEDVKDVTKNLSEYLLKNFFSGKSGPLGEVYLNGIDIASVPEGNNLKFDELVEALNDSSTERRIYLSASPLCVYPDYYLNKAIQTEKLDFLFVQFFYQNPCIYTEGNPENLFEAMKTWTKNVPESMIFMALPATPNLDGYIPPRVLNKEILPAVSEASNFAGVMIFDRYFDRFRKYSSKIK
[1]
  glycan array binding signal (z-score): 1.37
[2]
  glycan array binding signal (z-score): -0.224
[3]
  glycan array binding signal (z-score): 0.565
[4]
  glycan array binding signal (z-score): 0.085
[5]
  glycan array binding signal (z-score): -0.466
[6]
  glycan array binding signal (z-score): 0.017
[7]
  glycan array binding signal (z-score): -0.38
[8]
  glycan array binding signal (z-score): -0.145
[9]
  glycan array binding signal (z-score): -0.388
[10]
  glycan array binding signal (z-score): -0.292
[11]
  glycan array binding signal (z-score): -0.41
[12]
  glycan array binding signal (z-score): 0.135
[13]
  glycan array binding signal (z-score): -0.394
[14]
  glycan array binding signal (z-score): 0.648
[15]
  glycan array binding signal (z-score): 0.076
[16]
  glycan array binding signal (z-score): 0.013
[17]
  glycan array binding signal (z-score): -0.388
[18]
  glycan array binding signal (z-score): -0.415
[19]
  glycan array binding signal (z-score): -0.302
[20]
  glycan array binding signal (z-score): -0.458
[21]
  glycan array binding signal (z-score): 1.07
[22]
  glycan array binding signal (z-score): -0.314
[23]
  glycan array binding signal (z-score): 0.586
[24]
  glycan array binding signal (z-score): -0.143
[25]
  glycan array binding signal (z-score): 0.2
[26]
  glycan array binding signal (z-score): -0.364
[27]
  glycan array binding signal (z-score): 0.192
[28]
  glycan array binding signal (z-score): 0.879
[29]
  glycan array binding signal (z-score): -0.445
[30]
  glycan array binding signal (z-score): -0.493
[31]
  glycan array binding signal (z-score): -0.368
[32]
  glycan array binding signal (z-score): 0.284
[33]
  glycan array binding signal (z-score): -0.22
[34]
  glycan array binding signal (z-score): -0.045
[35]
  glycan array binding signal (z-score): -0.312
[36]
  glycan array binding signal (z-score): -0.308
[37]
  glycan array binding signal (z-score): -0.377
[38]
  glycan array binding signal (z-score): 0.223
[39]
  glycan array binding signal (z-score): -0.263
[40]
  glycan array binding signal (z-score): -0.115
[41]
  glycan array binding signal (z-score): -0.129
[42]
  glycan array binding signal (z-score): -0.178
[43]
  glycan array binding signal (z-score): -0.14
[44]
  glycan array binding signal (z-score): -0.199
[45]
  glycan array binding signal (z-score): -0.223
